In the supplement of paper PMC11417369:
± gives the standard deviation of the averaged measurements. Some of the results follow.

tested on: PfAP2-EXP AP2 domain (GST-tagged); experiment: gcPBM binding intensity (ln(normalized median fluorescence intensity)); higher = stronger DNA binding
Summary of the method: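 Alexa488 anti-GST antibody, scanned at 488 nm, detected GST-tagged P. falciparum DNA-binding domains that had been expressed in E. coli and incubated for 1 h on an Agilent 4 × 180k array. The array carried primer-extended double-stranded 36-bp intergenic genomic probes and negative controls. Binding intensity is the highest Masliner-normalised natural-log median intensity across replicate spots of either orientation of each probe.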

| Sequence | gcPBM binding intensity (ln) |
| --- | --- |
| CAAATACAGAAACACACACACATATACATATATATA [CACACA_site3498] | 8.65 ± 0.28 |
| AAAATCTAGGTATTTATACACACTAAAATAATATAC [CACACA_site623] | 8.52 ± 0.3 |
| TTTAAATATAATTGGAGTACTTATAATATATATATA [XGTACX_site7247] | 9.46 ± 0.12 |
| ATTACACATATAGTAGTGCAATAACTCCAAAAAAAA | 8.88 ± 0.22 |
| AATATGTAATAGTGTACACATATATCTGTATTTATG [CACACA_site4252] | 8.61 ± 0.3 |
| ATGTTATTAAAAAAGGGTACACATCTTTTATGTTAA [XGTACX_site812] | 8.68 ± 0.42 |
| TATATATATATATGGGGTACAAATGGTCAGTATTAT [XGTACX_site1223] | 10.2 ± 0.21 |
| GAAAATATAAAAAAAAGTACATTTTCTCTAAATATA [XGTACX_site2441] | 8.46 ± 0.36 |
| AAAAAGGGTATTATTACACACACGTAAATATTAAGA [CACACA_site4233] | 8.64 ± 0.39 |
| CTATATAATATGAGCACACATAAGATTTGGTGTTAT [CACACA_site744] | 8.44 ± 0.36 |
| AAAAAAAAATTATATACACACATATAAATATATATA [CACACA_site1197] | 8.09 ± 0.014 |
| CCTATTTATTTATACACACACATATATAAATAAATA [CACACA_site7417] | 8.63 ± 0.26 |
| AAAACAAATAAGTAAACACACATATAAAATCTATAT [CACACA_site7262] | 8.58 ± 0.4 |
| TTATGTAAATGCTTATGTACTTATTACAATATTTTT [XGTACX_site4057] | 8.5 ± 0.41 |
| TAAGAATTGAAAAAATGTACACAATATAAAATTGAA [XGTACX_site698] | 8.42 ± 0.42 |
| AAAAAGAATAAATAAATAAATAAATATATATATATA [GTGCAC_negctrl_site584] | 10.1 ± 0.14 |
| AAAAAGAAAAAAAAATGTACATAAAGTCTAATGATA [XGTACX_site4781] | 8.85 ± 0.73 |
| TTTATTACTATGTAAACACACATGCAATATATGTTA [CACACA_site1114] | 8.54 ± 0.34 |
| ATATTATATAAATACACACACACATGCATGCACATA [CACACA_site4236] | 10.04 ± 0.064 |
| ATAATGTAGAACTAGAGTACATAAAAAAATAAACAT [XGTACX_site5205] | 9.06 ± 0.47 |
| GCTACACAATTTTTTAGTACACACATATAAATATAT [XGTACX_site3131] | 8.85 ± 0.24 |
| TTTTTTTTTTTTTTTTTTTGTCTTATATATTACGGA [CACACA_negctrl_site322] | 7.87 ± 0.44 |
| TATATATTATCAAGTGGACACACGAAAAAAAGGAAA [CACACA_site3741] | 9.05 ± 0.47 |
| TAAAGATTGTTCAGTGCATGTTGGCCTGTAAATGGA [TGCATGCA_site315] | 8.68 ± 0.28 |
| TTTTTCATATTATACTTTTATATACATATATAAAAA [XGTACX_negctrl_site281] | 8.55 ± 0.31 |
